Data from patent US20250304706A1 (Astellas, published 2025).

Molecular target: T1, CD3εδ complex protein (human; alpaca, UniProt P07766 23-126; P04234 22-105)
T1 construct: they are not part of the secreted protein; also called human CD3; CD386 complex protein
Assay: ELISA, CD3 complex immobilized
Description: Binding activities of the anti-TSPAN8/anti-CD3 bispecific antibodies BTE-0001 to BTE-0067 to CD3 were evaluated by the ELISA. ELISA was performed according to a conventional method. The […] complex protein obtained in Example 1-3 was immobilized on a plate. BTE-0001 to BTE-0067 were used as the test antibodies. As a secondary antibody, Goat anti-Human IgG Fc, Multi-Species SP ads-HRP (2014-05, available from SouthernBiotech) was used. TMB+Substrate-Chromogen (S1599, available from Dako) was used as the detection reagent. Infinite M200pro (available from Tecan) was used to measure the absorbance. The EC50 values were calculated using variable slope model (four parameters) in GraphPad Prism with the maximum value in the same plate fixed at the top and the minimum value in the blank in the same plate fixed at the bottom. Since BTE-0001 was always measured in each plate as a control, only the EC50 value of BTE-0001 was expressed as the average value of a plurality of plates.
Binding activities of the 66 anti-TSPAN8/anti-CD3 bispecific antibodies to CD3 were evaluated by the ELISA described in Example 1-4.

UniProt P07766, sequence (P07766 23-126 limits assumed, stated change not applied, form in doubt, chain 1 of 2): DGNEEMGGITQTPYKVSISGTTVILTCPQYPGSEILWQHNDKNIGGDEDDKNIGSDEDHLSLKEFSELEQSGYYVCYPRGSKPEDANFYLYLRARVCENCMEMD
UniProt P07766, sequence (P04234 22-105 limits assumed, stated change not applied, form in doubt, chain 2 of 2, further chain): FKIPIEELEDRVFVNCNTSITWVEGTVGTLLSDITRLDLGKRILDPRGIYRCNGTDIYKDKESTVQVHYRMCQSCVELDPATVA

Row | Binder | EC50
1 | BTE-0091 (bispecific antibody, anti-TSPAN8/anti-CD3) heavy: QVQLVESGGGVVQPGGSLRLSCAASGFTFSSYGMHWVRQAPGKGLEWVAVIWYDGRNKYYADSVKGRFTISRDNSKNTLYLQMNSLRAEDTAVYYCTRDHSGSGSYYIDYWGQGTLVTVSSASTKGPSVFPLAPSSKSTSGGTAALGCLVKDYFPEPVTVSWNSGALTSGVHTFPAVLQSSGLYSLSSVVTVPSSSLGTQTYICNVNHKPSNTKVDKKVEPKSCDKTHTCPPCPAPEAAGGPSVFLFPPKPKDTLMISRTPEVTCVVVDVSHEDPEVKFNWYVDGVEVHNAKTKPREEQYNSTYRVVSVLTVLHQDWLNGKEYKCKVSNKALAAPIEKTISKAKGQPREPQVYTLPPSRDELTKNQVSLSCAVKGFYPSDIAVEWESNGQPENNYKTTPPVLDSDGSFFLVSKLTVDKSRWQQGNVFSCSVMHEALHNHYTQKSLSLSPGK light: EIAMTQSPATLSVSPGERATLSCRASQSVSSNLAWYQQKPGQAPRLLIYGASTRATGLPARFSGSGSGTEFTLTISSLQSEDFAVYYCQQYNNFWTFGQGTKVEIKRTVAAPSVFIFPPSDEQLKSGTASVVCLLNNFYPREAKVQWKVDNALQSGNSQESVTEQDSKDSTYSLSSTLTLSKADYEKHKVYACEVTHQGLSSPVTKSFNRGEC scFv-Fc: EVQLVESGGGLIQPGGSLRLSCAASGFTFNTYAMNWVRQAPGKGLEWVARIRSKYNNYATYYADSVKDRFTISRDDSKSTLYLQMNNLRAEDTAVYYCVRHGNFGNSYVSWFDYWGQGTLVTVSSGKPGSGKPGSGKPGSGKPGSQAVVTQEPSLTVSPGGTVTLTCRSSTGAVTTSNYANWVQQKPGQAPRGLIGGTNKRAPGVPARFSGSLLGDKAALTLSGAQPEDEAEYYCALWYSNLWVFGGGTKVTVL[human IgG1 Fc with C220S L234A L235A P329A T366W (EU numbers) cut from this listing] | 0.623 µg/mL
2 | BTE-0092 (bispecific antibody, anti-TSPAN8/anti-CD3) heavy: QVQLVESGGGVVQPGGSLRLSCAASGFTFSSYGMHWVRQAPGKGLEWVAVIWYDGRNKYYADSVKGRFTISRDNSKNTLYLQMNSLRAEDTAVYYCTRDHSGSGSYYIDYWGQGTLVTVSSASTKGPSVFPLAPSSKSTSGGTAALGCLVKDYFPEPVTVSWNSGALTSGVHTFPAVLQSSGLYSLSSVVTVPSSSLGTQTYICNVNHKPSNTKVDKKVEPKSCDKTHTCPPCPAPEAAGGPSVFLFPPKPKDTLMISRTPEVTCVVVDVSHEDPEVKFNWYVDGVEVHNAKTKPREEQYNSTYRVVSVLTVLHQDWLNGKEYKCKVSNKALAAPIEKTISKAKGQPREPQVYTLPPSRDELTKNQVSLSCAVKGFYPSDIAVEWESNGQPENNYKTTPPVLDSDGSFFLVSKLTVDKSRWQQGNVFSCSVMHEALHNHYTQKSLSLSPGK light: EIAMTQSPATLSVSPGERATLSCRASQSVSSNLAWYQQKPGQAPRLLIYGASTRATGLPARFSGSGSGTEFTLTISSLQSEDFAVYYCQQYNNFWTFGQGTKVEIKRTVAAPSVFIFPPSDEQLKSGTASVVCLLNNFYPREAKVQWKVDNALQSGNSQESVTEQDSKDSTYSLSSTLTLSKADYEKHKVYACEVTHQGLSSPVTKSFNRGEC scFv-Fc: EVQLVESGGGLIQPGGSLRLSCAASGFTFSDHAMNWVRQAPGKGLEWVARIRSKYNNYATYYADSVKDRFTISRDDSKSTLYLQMNNLRAEDTAVYYCVRHGNFGNSYVSWFAYWGQGTLVTVSSGKPGSGKPGSGKPGSGKPGSQAVVTQEPSLTVSPGGTVTLTCRSSTGAVTTSNYANWVQQKPGQAPRGLIGGTNKRAPGTPARFSGSLLGDKAALTISGAQPEDEAEYYCALWYSNLWVFGGGTKVTVL[human IgG1 Fc with C220S L234A L235A P329A T366W (EU numbers) cut from this listing] | 0.187 µg/mL
3 | BTE-0094 (bispecific antibody, anti-TSPAN8/anti-CD3) heavy: QVQLVESGGGVVQPGGSLRLSCAASGFTFSSYGMHWVRQAPGKGLEWVAVIWYDGRNKYYADSVKGRFTISRDNSKNTLYLQMNSLRAEDTAVYYCTRDHSGSGSYYIDYWGQGTLVTVSSASTKGPSVFPLAPSSKSTSGGTAALGCLVKDYFPEPVTVSWNSGALTSGVHTFPAVLQSSGLYSLSSVVTVPSSSLGTQTYICNVNHKPSNTKVDKKVEPKSCDKTHTCPPCPAPEAAGGPSVFLFPPKPKDTLMISRTPEVTCVVVDVSHEDPEVKFNWYVDGVEVHNAKTKPREEQYNSTYRVVSVLTVLHQDWLNGKEYKCKVSNKALAAPIEKTISKAKGQPREPQVYTLPPSRDELTKNQVSLSCAVKGFYPSDIAVEWESNGQPENNYKTTPPVLDSDGSFFLVSKLTVDKSRWQQGNVFSCSVMHEALHNHYTQKSLSLSPGK light: EIAMTQSPATLSVSPGERATLSCRASQSVSSNLAWYQQKPGQAPRLLIYGASTRATGLPARFSGSGSGTEFTLTISSLQSEDFAVYYCQQYNNFWTFGQGTKVEIKRTVAAPSVFIFPPSDEQLKSGTASVVCLLNNFYPREAKVQWKVDNALQSGNSQESVTEQDSKDSTYSLSSTLTLSKADYEKHKVYACEVTHQGLSSPVTKSFNRGEC scFv-Fc: EVQLVESGGGLIQPGGSLRLSCAASGFTFNTYAMHWVRQAPGKGLEWVARIRSKYNNYATYYADSVKDRFTISRDDSKSTLYLQMNNLRAEDTAVYYCVRHGNFGNSYVSWFAYWGQGTLVTVSSGKPGSGKPGSGKPGSGKPGSQAVVTQEPSLTVSPGGTVTLTCRSSTGAVTTSNYANWVQQKPGQAPRGLIGGTNKRAPGTPARFSGSLLGDKAALTISGAQPEDEAEYYCALWYSNLWVFGGGTKVTVL[human IgG1 Fc with C220S L234A L235A P329A T366W (EU numbers) cut from this listing] | 0.297 µg/mL
4 | BTE-0096 (bispecific antibody, anti-TSPAN8/anti-CD3) heavy: QVQLVESGGGVVQPGGSLRLSCAASGFTFSSYGMHWVRQAPGKGLEWVAVIWYDGRNKYYADSVKGRFTISRDNSKNTLYLQMNSLRAEDTAVYYCTRDHSGSGSYYIDYWGQGTLVTVSSASTKGPSVFPLAPSSKSTSGGTAALGCLVKDYFPEPVTVSWNSGALTSGVHTFPAVLQSSGLYSLSSVVTVPSSSLGTQTYICNVNHKPSNTKVDKKVEPKSCDKTHTCPPCPAPEAAGGPSVFLFPPKPKDTLMISRTPEVTCVVVDVSHEDPEVKFNWYVDGVEVHNAKTKPREEQYNSTYRVVSVLTVLHQDWLNGKEYKCKVSNKALAAPIEKTISKAKGQPREPQVYTLPPSRDELTKNQVSLSCAVKGFYPSDIAVEWESNGQPENNYKTTPPVLDSDGSFFLVSKLTVDKSRWQQGNVFSCSVMHEALHNHYTQKSLSLSPGK light: EIAMTQSPATLSVSPGERATLSCRASQSVSSNLAWYQQKPGQAPRLLIYGASTRATGLPARFSGSGSGTEFTLTISSLQSEDFAVYYCQQYNNFWTFGQGTKVEIKRTVAAPSVFIFPPSDEQLKSGTASVVCLLNNFYPREAKVQWKVDNALQSGNSQESVTEQDSKDSTYSLSSTLTLSKADYEKHKVYACEVTHQGLSSPVTKSFNRGEC scFv-Fc: EVQLVESGGGLIQPGGSLRLSCAASGFTFNTYAMGWVRQAPGKGLEWVARIRSKYNNYATYYADSVKDRFTISRDDSKSTLYLQMNNLRAEDTAVYYCVRHGNFGNSYVSWFAYWGQGTLVTVSSGKPGSGKPGSGKPGSGKPGSQAVVTQEPSLTVSPGGTVTLTCRSSTGAVTTSNYANWVQQKPGQAPRGLIGGTNKRAPGTPARFSGSLLGDKAALTISGAQPEDEAEYYCALWYSNLWVFGGGTKVTVL[human IgG1 Fc with C220S L234A L235A P329A T366W (EU numbers) cut from this listing] | 0.802 µg/mL
5 | BTE-0095 (bispecific antibody, anti-TSPAN8/anti-CD3) heavy: QVQLVESGGGVVQPGGSLRLSCAASGFTFSSYGMHWVRQAPGKGLEWVAVIWYDGRNKYYADSVKGRFTISRDNSKNTLYLQMNSLRAEDTAVYYCTRDHSGSGSYYIDYWGQGTLVTVSSASTKGPSVFPLAPSSKSTSGGTAALGCLVKDYFPEPVTVSWNSGALTSGVHTFPAVLQSSGLYSLSSVVTVPSSSLGTQTYICNVNHKPSNTKVDKKVEPKSCDKTHTCPPCPAPEAAGGPSVFLFPPKPKDTLMISRTPEVTCVVVDVSHEDPEVKFNWYVDGVEVHNAKTKPREEQYNSTYRVVSVLTVLHQDWLNGKEYKCKVSNKALAAPIEKTISKAKGQPREPQVYTLPPSRDELTKNQVSLSCAVKGFYPSDIAVEWESNGQPENNYKTTPPVLDSDGSFFLVSKLTVDKSRWQQGNVFSCSVMHEALHNHYTQKSLSLSPGK light: EIAMTQSPATLSVSPGERATLSCRASQSVSSNLAWYQQKPGQAPRLLIYGASTRATGLPARFSGSGSGTEFTLTISSLQSEDFAVYYCQQYNNFWTFGQGTKVEIKRTVAAPSVFIFPPSDEQLKSGTASVVCLLNNFYPREAKVQWKVDNALQSGNSQESVTEQDSKDSTYSLSSTLTLSKADYEKHKVYACEVTHQGLSSPVTKSFNRGEC scFv-Fc: EVQLVESGGGLIQPGGSLRLSCAASGFTFNTYAMAWVRQAPGKGLEWVARIRSKYNNYATYYADSVKDRFTISRDDSKSTLYLQMNNLRAEDTAVYYCVRHGNFGNSYVSWFAYWGQGTLVTVSSGKPGSGKPGSGKPGSGKPGSQAVVTQEPSLTVSPGGTVTLTCRSSTGAVTTSNYANWVQQKPGQAPRGLIGGTNKRAPGTPARFSGSLLGDKAALTISGAQPEDEAEYYCALWYSNLWVFGGGTKVTVL[human IgG1 Fc with C220S L234A L235A P329A T366W (EU numbers) cut from this listing] | 0.41 µg/mL
